The supplement of paper PMC9446081
The campaign covered roughly 39,000 compounds. About 220 (0.56%) showed activity. This is one part of the list.

System: Escherichia coli K-12 BW25113
Test: relative growth (OD600 normalised to plate interquartile mean) (fraction); higher = less growth inhibition, active = 0.2 or less
Details: 50 µM; LB; incubation time: overnight (16-24 h)
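Note: static incubation at 37 °C against the wild-type strain, values averaged over two biological replicates.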

Question: For `C[C@@H]1CCCCO[C@H](CN(C)C(=O)CCC(F)(F)F)[C@H](C)CN([C@@H](C)CO)C(=O)c2cc(NS(=O)(=O)c3cccs3)ccc2O1`, which relative growth is on record?
Answer: inactive: 0.995

Question: How did the relative growth turn out when `O=c1[nH]c(=S)[nH]nc1O` was run?
Answer: inactive: 1.02

Question: How did the relative growth turn out when `COc1cccc(-c2ccc3c(c2)O[C@@H](CN(C)C(=O)C2CCC2)[C@@H](C)CN([C@H](C)CO)S3(=O)=O)c1` was run?
Answer: inactive: 1.02

Question: For `C[C@@H]1CCCCO[C@@H](CN(C)C(=O)Nc2cccc3ccccc23)[C@H](C)CN([C@H](C)CO)C(=O)c2cc(NS(=O)(=O)c3ccc(Cl)cc3)ccc2O1`, which relative growth is on record?
Answer: inactive: 1.04

Question: `Cl.O=C(O)C=Cc1ccc(Cn2ccnc2)cc1` was tested. Which relative growth did it give?
Answer: inactive: 1.12

Question: With `COc1ccc(NC(=O)N(C)C[C@H]2Oc3ccc(NC(=O)Cn4cnnn4)cc3C(=O)N([C@H](C)CO)C[C@H]2C)cc1` as the compound, how does the relative growth read?
Answer: inactive: 0.982

Question: For `COc1cccc(C(=O)Nc2ccc3c(c2)C(=O)N(C)[C@H]2CC[C@@H](CC(=O)NCC4CC4)O[C@@H]2CO3)c1`, which relative growth is on record?
Answer: inactive: 1.01

Question: How did the relative growth turn out when `C[C@@H]1CN([C@H](C)CO)C(=O)c2cc(Br)cnc2O[C@@H]1CN(C)S(=O)(=O)c1ccccc1` was run?
Answer: inactive: 0.986

Question: With `CCCN1C[C@@H](C)[C@H](OC)CN(C)C(=O)c2ccc(NS(=O)(=O)c3cn(C)cn3)cc2OC[C@@H]1C` as the compound, how does the relative growth read?
Answer: inactive: 1

Question: `C[C@@H]1CCCCO[C@@H](CN(C)Cc2ccc(C(=O)O)cc2)[C@H](C)CN([C@H](C)CO)C(=O)c2cc(NC(=O)Cc3ccccc3)ccc2O1` was tested. Which relative growth did it give?
Answer: inactive: 0.95

Question: With `COc1ccc(S(=O)(=O)N(C)C[C@@H]2OCCCC[C@H](C)Oc3ccc(NC(=O)Nc4ccc(C(F)(F)F)cc4)cc3C(=O)N([C@@H](C)CO)C[C@H]2C)cc1` as the compound, how does the relative growth read?
Answer: inactive: 1.04

Question: `O=C(O)C=C(O)C(=O)O` was tested. Which relative growth did it give?
Answer: inactive: 1.02

Question: `COC1=CC(=O)c2ccccc2C1=O` was tested. Which relative growth did it give?
Answer: inactive: 0.885

Question: `C[C@H](CO)N1C[C@H](C)[C@@H](CN(C)S(=O)(=O)c2cn(C)cn2)Oc2c(NS(=O)(=O)c3ccc(F)cc3)cccc2C1=O` was tested. Which relative growth did it give?
Answer: inactive: 1.01

Question: How did the relative growth turn out when `CC(C)CC#Cc1ccc2c(c1)O[C@H](CN(C)S(=O)(=O)c1ccc(F)cc1)[C@H](C)CN([C@H](C)CO)S2(=O)=O` was run?
Answer: inactive: 1.04

Question: How did the relative growth turn out when `C[C@@H]1CN([C@H](C)CO)C(=O)c2cccc(NC(=O)Nc3ccccc3)c2O[C@@H]1CN(C)Cc1ccc(C(=O)Nc2ccccc2N)cc1` was run?
Answer: inactive: 1.02

Question: How did the relative growth turn out when `COc1ccc(S(=O)(=O)N(C)C[C@@H]2Oc3ncc(C#CC4(O)CCCC4)cc3C(=O)N([C@H](C)CO)C[C@H]2C)cc1` was run?
Answer: inactive: 1.01

Question: `COc1ccc(CCN2C(=O)[C@@]3(Cc4ccccc42)c2ccccc2C(=O)N(Cc2ccccc2)[C@H]3c2ccc(COC(=O)NCCCCCC(=O)NO)cc2)cc1` was tested. Which relative growth did it give?
Answer: inactive: 0.992
